Measured values taken from PubChem BioAssay AID887 (National Center for Advancing Translational Sciences (NCATS), 2007).
“And” between values parts separate entries of the source, which are not always exact repeats. Identical values can stand only once. In all, about 74,000 compounds went through this assay and about 1,100 (1.5%) were called active. This list was built around the results that the source calls inconclusive (neither active nor inactive); the mix of calls is not that of the screen. The call rests on the fitted dose curve; in most records, active means well fitted inhibition curve with a large enough effect; inconclusive means small, poorly fitted or top-dose-only effect; inactive means no such curve, though single readings can be large or run the other way. Potencies of inconclusive entries are left out as doubtful fits.

Target: Polyunsaturated fatty acid lipoxygenase ALOX15 (Homo sapiens) (UniProt P16050)
Assay: qHTS Assay for Inhibitors of 15-hLO (15-human lipoxygenase); further: nearly all actives have a fitted effect of over 55% in size
Details: purified 15hLO-1, xylenol orange hydroperoxide absorbance; activity change, negative = inhibition: at 57.1 µM (top of the series) unless noted
How it was run: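 Quantitative HTS in 25 mM Hepes pH 7.5 containing 0.01% Triton X-100: human 15hLO-1 at 40 nM, arachidonic acid at 50 uM, 6 min turnover. Product quantified via ferrous oxidation/xylenol orange, 573:405 nm absorbance ratio.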
On the % scale 0 is the no-effect control and ±100 the full control effect; potency means the concentration at half of the fitted maximal effect; tags describe the fitted curve by direction and shape.

Sequence of UniProt P16050 (P16050 whole entry, looked up): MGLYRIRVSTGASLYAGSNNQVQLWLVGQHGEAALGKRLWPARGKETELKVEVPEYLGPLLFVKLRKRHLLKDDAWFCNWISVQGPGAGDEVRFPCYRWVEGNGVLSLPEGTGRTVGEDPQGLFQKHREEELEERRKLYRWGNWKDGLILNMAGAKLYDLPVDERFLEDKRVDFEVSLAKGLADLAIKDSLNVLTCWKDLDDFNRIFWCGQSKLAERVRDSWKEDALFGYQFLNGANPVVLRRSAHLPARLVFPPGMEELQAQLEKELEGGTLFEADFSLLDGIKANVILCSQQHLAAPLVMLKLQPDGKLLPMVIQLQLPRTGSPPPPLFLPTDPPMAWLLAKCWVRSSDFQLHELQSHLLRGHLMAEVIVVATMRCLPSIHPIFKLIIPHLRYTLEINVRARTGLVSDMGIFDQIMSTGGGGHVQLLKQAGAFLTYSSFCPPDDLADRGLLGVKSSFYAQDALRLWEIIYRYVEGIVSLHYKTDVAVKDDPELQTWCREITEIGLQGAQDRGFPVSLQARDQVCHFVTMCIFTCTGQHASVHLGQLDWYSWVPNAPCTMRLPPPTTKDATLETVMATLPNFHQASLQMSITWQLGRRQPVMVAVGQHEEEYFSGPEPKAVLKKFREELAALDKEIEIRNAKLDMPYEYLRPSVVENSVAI

Row | Compound | Potency | activity change, negative = inhibition
1 | CSc1nnc2n(-c3ccccc3)c(=O)c3c4c(sc3n12)CCC4 | active: 2.51 µM | –
2 | O=c1nc2s/c(=C\c3ccco3)c(=O)n2nc1Cc1ccccc1 | inconclusive [inhibitor, partial curve] | –
3 | Cc1cccc(CNc2ncncc2-c2ccccc2C(F)(F)F)c1 | inconclusive [inhibitor, single point] | –
4 | COc1cc(OC)cc(C(=O)Nc2cccc(N3CCCC3)c2)c1 | inconclusive [inhibitor, full curve] | –
5 | Cc1cc(N2CCN(C(c3ccccc3)c3ccc(Cl)cc3)CC2)n2ncnc2n1 (stereo not drawn) | inconclusive [inhibitor, partial curve] | –
6 | N#Cc1c(N)oc(-c2ccc3c(c2)OCO3)c1-c1ccc2c(c1)OCO2 | active: 25.1 µM | –
7 | Cc1ccc(C)c(C(=O)COC(=O)c2ccc(Br)o2)c1 | inconclusive [inhibitor, full curve, poor fit] | –
8 | COC(=O)C1=C(C)N(C)C(C)=C(C(=O)OC)C1c1ccc(F)c(Br)c1 | – | inactive: -10.5%
9 | CC1CCCN(S(=O)(=O)c2cc(Cl)ccc2Cl)C1 (stereo not drawn) | – | inactive: -4.56%
10 | Cc1ccc2c(CSc3nncs3)cc(=O)oc2c1 | inconclusive [inhibitor, full curve, poor fit] | –
11 | Cc1ccccc1OCC(O)CN (stereo not drawn) | inconclusive [inhibitor, full curve, poor fit] | –
12 | O=C(c1cccc(F)c1)N1CCC2(CC1)CN(c1cccc(-c3ccccc3)c1)C2 | – | inactive: -8.57%
13 | CCCc1[nH]nc2c1C(C1CCCCC1)C(C#N)=C(N)O2 (stereo not drawn) | inconclusive [inhibitor, partial curve] | –
14 | COc1ccc(O)c(-c2cc(-c3cccc(Br)c3)n[nH]2)c1 | inconclusive [inhibitor, partial curve] | –
15 | COc1cc(C2c3c(-c4cc(Cl)c(C)cc4O)n[nH]c3C(=O)N2Cc2cccnc2)ccc1O (stereo not drawn) | inconclusive [inhibitor, partial curve] | –
16 | CCCCn1nc(NC(=O)c2cccs2)c2cc3ccccc3nc21 | inconclusive [inhibitor, partial curve] | –
17 | Cn1c(C(=O)O)c(CC(=O)Nc2ccc(F)cc2F)c2ccccc21 | inconclusive [inhibitor, single point] | –
18 | CN1CCc2c(sc3c2c(=O)n(-c2ccccc2)c2nnc(SCc4ccccc4F)n32)C1 | inconclusive [inhibitor, single point] | –
19 | COc1ccccc1-c1cc(NCc2cnc(C)cn2)ncn1 | inconclusive [inhibitor, full curve] | –
20 | CC1C=CCC2C(=O)N(c3cccc(C(=O)N4CCN(c5ccc(F)cc5)CC4)c3)C(=O)C12 (stereo not drawn) | inconclusive [inhibitor, single point] | –
21 | NC(=O)c1c(NC(=O)CSc2nnc(Cc3ccccc3)n2Cc2ccco2)sc2c1CCC2 | inconclusive [inhibitor, partial curve] | –
22 | N=c1c2c(-c3ccccc3)c(-c3ccccc3)n(Cc3ccco3)c2ncn1Cc1ccco1 | active: 25.1 µM | –
23 | Fc1ccc([C@H]2CCNC[C@H]2COc2ccc3c(c2)OCO3)cc1 | – | inactive: -29.4% [at 25.6 µM]

Row | Compound | Potency | activity change, negative = inhibition
24 | O=C(Nc1cccs1)Nc1ccccc1Cl | active: 12.6 µM | –
25 | CO/N=C(\C)CCN1CCc2nc(-c3ccccc3)c(-c3ccccc3)cc2C1 | – | inactive: 1.27% [at 11.4 µM]
26 | O=C1C[C@@H](O)[C@@H](O)[C@H]2[C@@H]3C(=O)N(C4CCCCC4)C(=O)[C@@H]3CC[C@H]12 | – | inactive: 13.8% [at 11.4 µM] and inactive: 1.84% [at 11.4 µM] and inactive: 2.93% [at 11.4 µM]
27 | C/C=C\C[C@H](C)[C@H](O)[C@H]1C(=O)N[C@@H](CC)C(=O)N(C)CC(=O)N(C)[C@@H](CC(C)C)C(=O)N[C@@H](C(C)C)C(=O)N(C)[C@@H](CC(C)C)C(=O)N[C@@H](C)C(=O)N[C@@H](C)C(=O)N(C)[C@@H](CC(C)C)C(=O)N(C)[C@@H](CC(C)C)C(=O)N(C)[C@@H](C(C)C)C(=O)N1C | inconclusive [inhibitor, single point] | –
28 | c1ccc(C2=NN[C@@H]3c4ccccc4-c4ccccc4N3C2)cc1 | inconclusive [inhibitor, single point] | –
29 | O=c1cnnc(SCCc2ccccc2)[nH]1 | active: 3.98 µM | –
30 | O=S(=O)(Cc1ccccc1)N1CCCCCC1 | – | inactive: 13.1%
31 | Cc1cc(O)c(C(C)C)cc1C1(c2cc(C(C)C)c(O)cc2C)OC(=O)c2ccccc21 | inconclusive [inhibitor, partial curve] | –
32 | Oc1cccc(C=NCc2ccccc2)c1O | active: 5.01 µM | –
33 | Nc1cc(-c2ccccc2)ccc1O | active: 7.94 µM | –
34 | COc1ccc(S(=O)(=O)N2Cc3ccccc3CC2C(=O)Nc2ccc(O)cc2)cc1OC (stereo not drawn) | inconclusive [inhibitor, partial curve, poor fit] | –
35 | CCc1nc(SCC(=O)NCc2ccco2)c2c3c(sc2n1)CCCC3 | – | inactive: 7.96%
36 | COc1cc(NC(=O)c2cc(-n3cnnc3)ccc2Cl)cc(OC)c1 | – | inactive: -8.78%
37 | CC1(C(=O)Nc2nccs2)Cc2ccccc2C(=O)O1 (stereo not drawn) | inconclusive [inhibitor, partial curve] | –
38 | C=C(C)C(O)/C=C/c1ccc(C)cc1 (stereo not drawn) | – | inactive: 3.04% [at 11.4 µM]
39 | C=CCn1c(N)c(C(=O)NCC2CCCO2)sc1=S (stereo not drawn) | inconclusive [inhibitor, single point] | –
40 | CC(NC(=O)c1ccccc1NS(C)(=O)=O)c1ccccc1 (stereo not drawn) | – | inactive: 2.87%
41 | O=c1c(O)c(-c2ccc(O)cc2)oc2ccccc12 | inconclusive [inhibitor, partial curve] | –
42 | Cc1nc2ccc(NC(=O)C3CCN(S(=O)(=O)c4cccs4)CC3)cc2s1 | inconclusive [inhibitor, partial curve] | –
43 | CCc1cc2c(CN3CCN(CCO)CC3)cc(=O)oc2cc1O | – | inactive: 3.15%
44 | Cc1cc(C(=O)CSc2nnc(Cc3ccccc3)o2)c(C)n1Cc1ccc2c(c1)OCO2 | inconclusive [inhibitor, partial curve, poor fit] | –
45 | Cc1ccc(-c2csc(N(CC3CCCO3)C(=O)c3ccco3)n2)cc1 (stereo not drawn) | inconclusive [inhibitor, full curve] | –
46 | Cc1ccc(-c2nsc3c(N4CCN(C(=O)c5ccco5)CC4)ncnc23)cc1 | inconclusive [inhibitor, partial curve] | –

Row | Compound | Potency | activity change, negative = inhibition
47 | COc1cc(-c2nc(S(=O)(=O)c3ccc(C)cc3)c(N(C)C)o2)cc(OC)c1OC | – | inactive: -5.98%
48 | N[C@@H](Cc1cc(CP(=O)(O)O)cc(-c2ccccc2Cl)c1)C(=O)O | inconclusive [inhibitor, partial curve, poor fit] | –
49 | COc1ccc2[nH]c(=O)c(C(c3nnnn3C3CCCCC3)N3CCN(C)CC3)cc2c1 (stereo not drawn) | inconclusive [inhibitor, single point] | –
50 | CCOC(=O)N1CCN(c2c(-c3ccc(C(C)C)cc3)c(=O)c2=O)CC1 | inconclusive [inhibitor, single point] | –
51 | CO/N=C(/C)CCC(=O)OC[C@@H]1O[C@H](c2ccccc2)C=C[C@@H]1Oc1ccc(OC)cc1 | – | inactive: 0.72% [at 11.4 µM]
52 | CCCc1cc(=O)oc2cc(C)c(CN3CCCC3)c(O)c12 | active: 12.6 µM | –
53 | O=C1[C@H]2[C@H]3[C@H](O)[C@H](O)C/C(=N/OCc4ccccc4)[C@H]3CC[C@@H]2C(=O)N1Cc1ccccc1 | – | inactive: 6.17% [at 11.4 µM]
54 | Cc1cc(NC(=O)CSc2nc(CCC3CCCC3)nc3ccccc23)no1 | inconclusive [inhibitor, single point] | –
55 | Cc1ccc(C(=O)CSc2nc3cc(S(=O)(=O)N4CCOCC4)ccc3o2)cc1 | inconclusive [inhibitor, single point] | –
56 | Cc1ccc(Nc2nc(N3CCOCC3)c3ccccc3n2)cc1 | inconclusive [inhibitor, single point] | –
57 | COc1cccc(S(=O)(=O)Nc2ccc(C(=O)N3CCOCC3)cc2)c1 | – | inactive: 3.67%
58 | COc1cccc(C2=NC(C)(C)NC(c3ccccc3O)C2)c1 (stereo not drawn) | active: 31.6 µM | –
59 | O=S(=O)(O)c1ccc(N=Nc2ccc3c(S(=O)(=O)O)cccc3c2O)c2ccccc12 | – | inactive: -11.8% [at 11.4 µM]
60 | Cc1ccc2cc(CN(Cc3ccc4c(c3)OCO4)Cc3nnnn3Cc3ccco3)c(=O)[nH]c2c1C | active: 25.1 µM | –
61 | CCn1c(CCCc2nc3c([nH]2)c(=O)n(C)c(=O)n3C)nc2c1c(=O)n(C)c(=O)n2C | inconclusive [inhibitor, single point] | –
62 | Cc1cccc(CSc2ncnc3nc[nH]c23)c1 | inconclusive [inhibitor, partial curve] | –
63 | CCSc1nnc(NC(=O)C2Cc3ccccc3CN2C(=O)c2ccco2)s1 (stereo not drawn) | inconclusive [inhibitor, single point] | –
64 | O=[N+]([O-])c1ccc(Nc2nc3ccccc3s2)cc1 | inconclusive [inhibitor, partial curve] | –
65 | O=C(Nc1ccc(Cl)cc1C(=O)Nc1ccccn1)c1ccco1 | active: 0.158 µM | –
66 | CCOC(=O)c1cc(-c2ccncc2)nc2c1c(C)nn2-c1ccccn1 | – | inactive: -19.9%
67 | OCC(CO)(CO)N=Cc1c(O)ccc2ccccc12 | inconclusive [inhibitor, partial curve] | –
68 | COc1ccc(CC(NC(C)=O)C(=O)NC2CCN(c3nc(C)cc(C)c3C#N)CC2)c(OC)c1 (stereo not drawn) | active: 25.1 µM | –
